From FireProtDB (doi:10.1021/bi00178a027)

Details: Escherichia coli (strain K12), Thermal, DSC, Sodium phosphate 50 mM, reversible: yes

Substance: Thioredoxin 1 wild type (sequence not shown)
- Tm (pH 6): 74 °C
- heat capacity change of unfolding (pH 6): 1.93 kcal/mol/K
- unfolding enthalpy (calorimetric) (pH 6): 67.8 kcal/mol
- Tm (pH 7): 73.3 °C
- heat capacity change of unfolding (pH 7): 2.07 kcal/mol/K
- unfolding enthalpy (calorimetric) (pH 7): 76.1 kcal/mol
